# Reference: the supplement of paper PMC3334620
# The full ranking holds about 33,000 sequences; the median of “E-score (-0.5 to 0.5)” is about -0.054, and the highest 2% start at about 0.39. Some of the results follow.
# Target: Ylr278c (UniProt Q05854)
# Assay: PBM E-score (8-mer binding enrichment) (E-score (-0.5 to 0.5)); higher = stronger / more preferred TF binding; most listed sequences are background and not binding sites
# Settings: protein concentration: 200 nM; construct: GST-DNA-binding domain
# Summary of the method: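 For each ungapped eight-base word taken together with its reverse complement, the Universal PBM Analysis Suite assigned an E-score. Binding data came from GST-tagged yeast transcription factors, applied at about 100-200 nM, on universal all-10-mer Agilent arrays made double-stranded by primer extension. Fluorescent anti-GST marked bound protein, and scans were normalised with masliner.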
row,Sequence,PBM E-score
1,ATGTCGCA,-0.0728
2,CAGAGGGA,-0.166
3,CGGAACAC,0.353
4,AGTCGTTG,-0.245
5,ATACGCGC,-0.055
6,CCTACCGC,-0.0389
7,AGGTGTTC,-0.252
8,CAGGGGGG,-0.265
9,AGCTATTG,-0.161
10,TGCATTAA,-0.0658
11,TCTTACCA,-0.21
12,AGGGACGA,-0.121
13,CAAGTAGA,0.0185
14,CCGGCAAC,0.32
15,CTAGGAAA,-0.148
16,ATGACTGG,-0.052
17,CCGTCCCG,0.348
18,GAGCTATC,0.117
19,CCTTATGC,-0.104
20,GCGGCGGA,0.453
21,GAGATGGC,0.155
22,GTCCAGAA,-0.00598
23,CGTCACCC,-0.0058
24,CATAGCGA,-0.136
25,GTCCCTGA,-0.259

row,Sequence,PBM E-score
1,AGGTGGGG,-0.151
2,CACAGTTC,0.0283
3,CACTTTCG,0.0954
4,AAAATGGC,0.0152
5,GAACGAAC,0.0162
6,AAAGTCCA,-0.0593
7,AGCCTGGA,-0.106
8,AATCCCTA,-0.0752
9,AGGGCTAG,-0.18
10,ACTATCCT,-0.00288
11,CTCAACTA,-0.0326
12,AGGGTCAG,-0.247
13,AGACAGAC,0.00495
14,GTAGACTA,-0.136
15,ATATAGAA,-0.126
16,AGTCGAGG,-0.101
17,TAATAGAA,-0.144
18,ACTTACCA,-0.0445
19,CCTTGGGA,-0.0166
20,ACCCCGAC,0.39
21,CGGGCTAA,0.178
22,CATAGTGG,-0.107
23,AGAAGCAG,-0.198
24,CTCTGGTA,-0.213
25,AGCCGTGG,-0.0605

row,Sequence,PBM E-score
1,ACAAGGTG,-0.0704
2,GACGAGGA,-0.176
3,TATCGCGA,0.115
4,ACCAACTG,-0.117
5,AGATCGTC,-0.267
6,AGGCCGAA,0.243
7,GACATTAC,0.0872
8,GGCGATAA,0.156
9,CACATCCC,-0.00189
10,ATGATGAA,-0.0355
11,ATTTAGCC,0.0701
12,CCATTTAC,0.0821
13,AAAGAGGT,-0.0839
14,ACCACTAT,-0.241
15,AAGGGATT,-0.281
16,ACTGAGGA,-0.0929
17,ACCCAGCG,-0.125
18,AGCAGATA,-0.0688
19,CTTGCATA,-0.224
20,ATTTTGAA,0.0175
21,GACTCAAC,-0.0872
22,ATTTACGG,0.322
23,GATACAAC,0.0807
24,TGCATGAA,-0.0338
25,CCACTAAC,-0.293

row,Sequence,PBM E-score
1,CACCGTCG,0.205
2,GATAGAGC,-0.0555
3,AAAGTTCA,0.0477
4,ACTTTACG,-0.0903
5,TGCCAAAA,-0.0916
6,CGTGGGAA,-0.272
7,GTATTAAC,-0.0125
8,ACCTTGCT,-0.0598
9,ATATGGAT,-0.177
10,TAGCGGAA,0.314
11,ATCCACTG,-0.108
12,ACAGCTAG,-0.118
13,CGGCACGC,0.197
14,GGGGATCA,-0.0408
15,CAAAGCAC,-0.189
16,CTGTCTTC,-0.188
17,ACTTCGGG,0.212
18,AAAGTCCC,0.173
19,ACACAGGG,-0.0918
20,GGGCTTGA,-0.142
21,CCAATTGC,-0.12
22,TGCTGTAA,-0.18
23,AACCTGAA,-0.222
24,CATGGCAA,-0.124
25,GCCGAACA,0.21

row,Sequence,PBM E-score
1,TTCAACAA,-0.162
2,CCAACTAG,-0.217
3,AAATTATT,0.12
4,CCCGAATA,0.263
5,AAGTAGAC,-0.011
6,GACGAATA,0.0954
7,CGTACAGA,-0.26
8,ATCTTCAA,-0.196
9,AATATGAG,-0.168
10,AAGGAATG,-0.0329
11,ACACGCTC,0.0439
12,GGGGCGCA,-0.0178
13,ATCTAGCC,-0.0261
14,ACATTGAA,-0.0415
15,CAGACTCG,-0.159
16,ACCTCAGC,-0.0674
17,CTTGCCGA,-0.0329
18,ATTAGCTC,-0.0566
19,CCGCACCG,0.29
20,ATAACCTA,-0.148
21,AGGGCATG,-0.113
22,AGCCTACA,-0.0936
23,ACCGTGAA,0.121
24,GGGCCTGA,-0.161
25,CACTCGCC,0.0774

row,Sequence,PBM E-score
1,CAACAGCC,-0.0545
2,CCGGTACA,0.322
3,CACGAAGA,-0.155
4,ATGTCATC,-0.143
5,ACAGGTGC,-0.0681
6,AGTGCCAG,-0.158
7,ACGTAGTA,0.0575
8,ACGGGCGA,0.172
9,ACTGATGG,-0.167
10,CTAAGGAC,-0.0811
11,TTAAGTAA,0.115
12,ATTTATGC,0.0796
13,GACAAAAC,0.0574
14,ACGCTTAG,-0.119
15,AGACTACA,-0.199
16,AATCGTCT,-0.194
17,CAGGTTCG,0.133
18,AGTGTATG,-0.0273
19,AGGCGTCA,-0.293
20,AAGCATTC,-0.0721
21,ATTCCGAG,0.445
22,CGGGGACC,0.216
23,CGGAGGCC,0.42
24,CACTGGCA,-0.134
25,CCAGCTCG,-0.106

row,Sequence,PBM E-score
1,TCATACAA,-0.0307
2,ATATTCTG,0.0833
3,CTATTGAA,-0.0865
4,AATACGTC,0.139
5,CTTACGCA,-0.202
6,CTAAGGTA,0.0138
7,ACTTGTCC,0.241
8,ATTAGCGA,0.0162
9,ATTACATC,0.00427
10,AGATAAGG,-0.18
11,AGGTATAT,-0.194
12,ACAAGCCT,-0.309
13,TAGTGACA,-0.157
14,GGTAGCTA,-0.2
15,GTCTGCAA,-0.0552
16,AGGGGATC,-0.0127
17,ATTGTCAG,-0.127
18,AGCGACCC,-0.00942
19,GAGAGACA,-0.092
20,CGTAATCC,0.311
21,ACTGTACC,0.0291
22,AGCCGCAG,-0.00466
23,AGGTTAAA,-0.142
24,CGAGGGCG,0.159
25,ACACAGAC,-0.0906

row,Sequence,PBM E-score
1,ATATATGG,-0.0699
2,ACCATATC,-0.0317
3,CAGCTTGA,-0.0487
4,AGTCTAAG,0.0345
5,AGTACATA,0.00559
6,GCAGTTCC,0.169
7,ATTCTCAA,-0.137
8,CCTCGTCA,-0.0218
9,ACTCAGTG,-0.283
10,CTAGTTGA,-0.115
11,CCCTGTAA,0.00487
12,AAAAAGCT,-0.198
13,CTCACTAC,-0.0966
14,AATTAGAG,-0.114
15,GGCCGACC,0.183
16,TATGCAAA,-0.281
17,AAATGCTA,-0.0122
18,AGAATATA,-0.128
19,AACGGGCA,-0.0928
20,AATGCATC,-0.189
21,ACGATTCA,-0.129
22,AGGGTAAT,-0.0218
23,CGCTCCCC,-0.0655
24,TCCTCAAA,-0.165
25,GATTGGAA,-0.0736

row,Sequence,PBM E-score
1,AAGTCATA,-0.123
2,GATACTAA,0.201
3,AGAGGGGA,-0.126
4,GTCTCACA,-0.173
5,AACCGGCG,0.361
6,GCAACCGC,-0.0395
7,ATGGAAAG,-0.0576
8,ACGCAAGA,-0.152
9,ACAGGTTG,-0.226
10,CCGTTTCA,0.134
11,CCACGCTA,-0.252
12,CAGTGTCA,-0.162
13,CTCTACGA,-0.355
14,TACATAGA,-0.173
15,AGCCTCCG,0.381
16,GAAACACA,0.039
17,GACCCATC,0.0825
18,CGCGGAAA,0.378
19,CAGCGACA,-0.212
